# Experimental data taken from PubChem BioAssay AID485294 (National Center for Advancing Translational Sciences (NCATS), 2010).
# Out of some 370,000 compounds screened, about 150 (0.041%) were called active. The shares of active, inactive and inconclusive entries below differ from those in the screen. Calls come from the whole dose curve; as a rule, active = well fitted inhibition curve with a large enough effect; inconclusive = small, poorly fitted or top-dose-only effect; inactive = flat fitted curve, though single readings scatter. No potency is given beside an inconclusive call; the fits are too rough.
# Target: Beta-lactamase (Escherichia coli (strain K12)) (UniProt P00811)
# Assay: qHTS Inhibitors of AmpC Beta-Lactamase (assay with detergent); note: nearly all actives have a fitted effect of over 25% in size;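 for activity change, negative = inhibition: 0% = no-compound wells and -100% = no-enzyme wells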
# Conditions: AmpC hydrolysis of nitrocefin, absorbance 480 nm, 0.01% Triton; activity change, negative = inhibition: at 114 µM (top of the series)
# In short: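 AmpC (5.3 nM in the dispensed reagent) in 20 mM phosphate pH 7.0 with 0.01% (detergent screen) or 0.0001% Triton X-100 was preincubated with compounds for 15 min at room temperature. Nitrocefin was then added from an 800 uM solution, and hydrolysis was followed at 480 nm.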
# Potency is the fitted concentration of half-maximal effect; tags give direction and shape of the fitted curve.
# Sequence of UniProt P00811 (P00811 whole entry, looked up): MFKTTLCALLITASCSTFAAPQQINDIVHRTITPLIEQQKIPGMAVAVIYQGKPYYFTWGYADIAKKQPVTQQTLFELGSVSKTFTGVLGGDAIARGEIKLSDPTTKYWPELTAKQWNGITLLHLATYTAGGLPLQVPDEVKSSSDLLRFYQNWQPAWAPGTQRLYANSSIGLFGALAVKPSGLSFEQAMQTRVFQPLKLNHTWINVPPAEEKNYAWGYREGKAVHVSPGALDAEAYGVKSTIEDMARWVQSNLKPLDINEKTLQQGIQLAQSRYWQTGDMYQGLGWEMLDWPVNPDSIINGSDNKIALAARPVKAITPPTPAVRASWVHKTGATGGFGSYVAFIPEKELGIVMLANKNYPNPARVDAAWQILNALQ
SMILES,Potency,"activity change, negative = inhibition"
COc1ccc(/C=N/NC(=O)CCCCCNC(=O)c2ccccc2)cc1,"inconclusive [inhibitor, full curve]",–
COc1cccc(CNC(=O)Cc2c(C)c3c(cc(C)c4c(C)coc43)oc2=O)c1,–,inactive: 14.5%
CCOC(=O)C1CCCN(C(=O)c2sc3nc(C)nc(N(CC)CC)c3c2C)C1 (stereo not given),"inconclusive [inhibitor, full curve]",–
CCCC(=O)Nc1ccccc1NC(=O)CCC,"inconclusive [inhibitor, partial curve]",–
CC(C)Cc1cc(C(=O)Nc2ccc(Br)cc2)no1,–,inactive: -1.83%
Cc1ccn2cc(CNS(=O)(=O)c3cccs3)nc2c1,–,inactive: -1.62%
CC(=O)NC(=C(Cl)Cl)S(=O)(=O)c1ccccc1,"inconclusive [inhibitor, full curve, poor fit]",–
Cc1[nH]n(-c2ccccc2)c(=O)c1C(=O)Nc1ccccc1,"inconclusive [inhibitor, partial curve]",–
COc1ccc(N2C(=O)c3ccccc3NC23CCCCC3)cc1,–,inactive: -19.5%
COc1ccc(-c2cn3cccnc3n2)cc1,"inconclusive [inhibitor, partial curve, poor fit]",–
O=C(NCc1ccccc1)Nc1cccn(Cc2cccc(F)c2)c1=O,"inconclusive [inhibitor, full curve]",–
COc1ccc(Cl)cc1-c1nc(-c2ccc(Br)o2)no1,"inconclusive [inhibitor, full curve, poor fit]",–
O=C(COC(=O)c1cccc(C(F)(F)F)c1)NCc1ccccc1,"inconclusive [inhibitor, partial curve]",–
COc1ccc(C(=O)Nc2cccc(NC(=O)c3ccc(OC)c(OC)c3)n2)cc1OC,"inconclusive [inhibitor, full curve, poor fit]",–
CC(=O)Nc1ccc(S(=O)(=O)NCCSCc2ccco2)cc1,–,inactive: 1.5%
N=c1c(C(=O)NCc2ccc(F)cc2)cc2c(=O)n3ccccc3nc2n1Cc1cccnc1,"inconclusive [inhibitor, full curve, poor fit]",–
CC1CCN(C(=O)c2cc(-c3cccc(Cl)c3)on2)CC1,–,inactive: 25.5%
COc1ccc(Cc2nnc(SCC(=O)Nc3nc(C)cs3)o2)cc1,"inconclusive [inhibitor, full curve, poor fit]",–
Cc1ccc(NC(=O)C(C)OC(=O)c2ccc(NC(=O)CC#N)cc2)cc1S(=O)(=O)N1CCOCC1 (stereo not given),"inconclusive [inhibitor, partial curve]",–
O=C(Cn1cnc2c(cnn2-c2ccccc2)c1=O)N1CCOCC1,"inconclusive [inhibitor, full curve]",–
O=C(CCc1ccccc1)NNC(=O)CCc1ccccc1,–,inactive: 0.171%
NC(=O)c1nsc(C(=O)N(CCc2ccccc2)C(C(=O)NC2CCCC2)c2ccco2)c1N (stereo not given),"inconclusive [inhibitor, single point]",–
O=C1c2ccccc2C(=O)C1Cc1cccc2ccccc12,–,inactive: 1.2%
CC(=O)c1c(C)nc2ccccn12,–,inactive: -1.24%

SMILES,Potency,"activity change, negative = inhibition"
O=C(CCC(=O)c1cccs1)NC(c1ccccc1)c1ccccc1,–,inactive: -10.4%
O=C(COC(=O)CCc1c[nH]c2ccccc12)NCc1ccccc1,–,inactive: -12.2%
COCCNC(=O)c1cccc(OC2CCN(Cc3ccc(Cl)c(F)c3)CC2)c1,"inconclusive [inhibitor, partial curve, poor fit]",–
COc1ccc(COC(=O)C2CCN(S(=O)(=O)c3ccc(Cl)cc3)CC2)cc1,"inconclusive [inhibitor, partial curve, poor fit]",–
COCCCNC(=O)CCn1c(=O)c2ccccc2n(CC(=O)Nc2c(C)cccc2C)c1=O,"inconclusive [inhibitor, single point]",–
CNc1oc(Cc2ccccc2)nc1S(=O)(=O)c1ccc(Cl)cc1,–,inactive: -12.3%
CCn1nccc1C(=O)Nc1ccc(C(=O)OC(C)C)cc1,"inconclusive [inhibitor, partial curve, poor fit]",–
Cc1nnc(SCC2=C(C(=O)O)N3C(=O)C(NC(=O)Cn4nc(C(F)F)c(Cl)c4C)C3SC2)s1 (stereo not given),–,inactive: -10%
CCOc1ccc(NS(=O)(=O)c2ccc(C(=O)N3CCCC(C)C3)cc2)cc1 (stereo not given),–,inactive: -13.4%
CCC(CC)=NNC(=O)c1ccccc1OCc1ccc(F)cc1,"inconclusive [inhibitor, partial curve, poor fit]",–
CCN(CC)C(=O)c1ccc(COc2ccc(Cl)c(C)c2)o1,"inconclusive [inhibitor, full curve, poor fit]",–
O=[N+]([O-])c1ccc(Oc2ccc(S(=O)(=O)N3CCOCC3)cc2)cc1,"inconclusive [inhibitor, full curve]",–
CC(=O)c1oc2ccccc2c1NC(=O)COC(=O)c1ccc(-n2nc(C)cc2C)cc1,"inconclusive [inhibitor, full curve]",–
O=C(CN1CCN(CC(=O)Nc2ccccn2)CC1)Nc1ccccn1,–,inactive: -7.52%
CC(C)(CO)C(O)C(=O)NCCCO (stereo not given),"inconclusive [inhibitor, full curve, poor fit]",–
Cc1cccc(NC(=O)Nc2cccc(C)n2)n1,"inconclusive [inhibitor, full curve, poor fit]",–
O=C(O)c1cc(-c2ccccc2)n(-c2ccc(Cl)cc2)n1,"inconclusive [inhibitor, full curve, poor fit]",–
CCC(CO)Nc1ncnc2c1cnn2-c1ccc(C)cc1 (stereo not given),–,inactive: 0%
CNC(=O)c1c(NC(=O)CCS(=O)(=O)c2ccccc2)sc2c1CCN(C(=O)OC)C2,"inconclusive [inhibitor, full curve, poor fit]",–
CCCCNC(=O)CN(c1ccc(Cl)c(Cl)c1)S(C)(=O)=O,"inconclusive [inhibitor, full curve]",–
CCN(CC)c1nc(N2CCN(C)CC2)nc2ccccc12,–,inactive: -16.4%
COc1cc(-c2nnc(SCC(=O)OC3CCCCC3)o2)cc(OC)c1OC,"inconclusive [inhibitor, full curve, poor fit]",–
CCCC[C@@H]1C[C@H]1[C@@H](NC(=O)c1ccccc1)c1ccccc1C(F)(F)F,"inconclusive [inhibitor, full curve]",–
COc1ccccc1NC(=O)CN1C(=O)c2cccc3cccc1c23,–,inactive: 15.5%

SMILES,Potency,"activity change, negative = inhibition"
COc1ccc(N2CCN(C(=S)NCc3ccc(C)cc3)CC2)cc1,"inconclusive [inhibitor, partial curve]",–
CCOc1ccc2ccccc2c1C(=O)N[C@@H]1C(=O)N2[C@@H]1SC(C)(C)[C@@H]2C(=O)O,active: 5.01 µM,–
Cc1ccc(C2SCC(=O)N2Cc2cn3ccsc3n2)o1 (stereo not given),–,inactive: -8.55%
O=C(NS(=O)(=O)Oc1cccc(Cl)c1Cl)OC[C@@H]1CCCN2CCCCC12 (stereo not given in full),"inconclusive [inhibitor, partial curve, poor fit]",–
CC(=O)N1c2ccccc2C2(O)N=C(C)SC12 (stereo not given),–,inactive: 4.32%
CCc1cccc(C)c1N=Cc1c(O)c2ccccc2oc1=O,–,inactive: -5.64%
Cc1cc(=O)oc2cc(Oc3ccc([N+](=O)[O-])cc3[N+](=O)[O-])ccc12,–,inactive: -14.6%
CCCNC(=O)c1ccc(N2CCC3(CC2)CC(c2ccccc2)=NO3)c(N)c1,"inconclusive [inhibitor, full curve, poor fit]",–
Cc1cc(O)c(C2=Nc3ccccc3SC(c3ccc(Cl)cc3)C2)c(=O)o1 (stereo not given),"inconclusive [inhibitor, partial curve]",–
Cc1cc(Cl)c(S(=O)(=O)NCc2cccnc2)cc1OCC(=O)NC1CCCCC1,"inconclusive [inhibitor, full curve, poor fit]",–
CN(C)C(=Nc1ccccc1)P(=S)(N(C)C)N(C)C,–,inactive: 2.54%
CCOc1nc(NCCc2ccc(OC)c(OC)c2)nc(N2CCN(c3ccc(OC)cc3)CC2)n1,"inconclusive [inhibitor, full curve]",–
CCOC(=O)c1sc(=N)n(-c2ccc(OC)cc2)c1C,–,inactive: 3.33%
Cc1ccc(C(=O)NNC(=O)c2cc(C)nc3ccccc23)cc1,"inconclusive [inhibitor, full curve, poor fit]",–
Cc1ccccc1-c1nc(CS(=O)(=O)CC(=O)NCCCN2C(C)CCCC2C)c(C)o1 (stereo not given),"inconclusive [inhibitor, full curve, poor fit]",–
CN1CCN(c2ccc(NC(=O)Cc3ccccc3)cc2)CC1,"inconclusive [inhibitor, single point]",–
CCOC(=O)NN1C(=O)c2ccccc2NC1c1ccccc1 (stereo not given),"inconclusive [inhibitor, partial curve, poor fit]",–
CCCCn1c(O)c(C(CC)=Nc2ccc(OCC)cc2)c(=O)[nH]c1=O,"inconclusive [inhibitor, full curve, poor fit]",–
CO/N=C\c1cc(C(=O)c2ccc(Cl)cc2Cl)cn1C,"inconclusive [inhibitor, partial curve, poor fit]",–
CN(C)C(=O)c1cc(Cl)ccc1Sc1cc(Cl)ccc1Cl,"inconclusive [inhibitor, full curve, poor fit]",–
COc1ccc(C2=NOC(C(=O)Nc3c(C)n(C)n(-c4ccccc4)c3=O)C2)cc1 (stereo not given),"inconclusive [inhibitor, partial curve, poor fit]",–
CN1C[C@H](C(=O)N[C@]2(C)O[C@@]3(O)[C@@H]4CCCN4C(=O)[C@H](Cc4ccccc4)N3C2=O)CC2c3cccc4[nH]cc(c34)C[C@H]21 (stereo not given in full),"inconclusive [inhibitor, full curve, poor fit]",–
